Molecules are shown by their SMILES. The whole screen tested about 310,000 compounds, of which about 2,200 (0.71%) showed an effect of 50% or more. Effects have a minus sign here. The list shows a part of the results.

For the experiment, the target named is human ether-à-go-go-related gene (hERG) potassium channel (human, UniProt Q12809). Nature of the experiment: primary screen, population patch clamp on CHO cells stably expressing hERG.
human ether-à-go-go-related gene (hERG) potassium channel, sequence (Q12809 whole entry, looked up): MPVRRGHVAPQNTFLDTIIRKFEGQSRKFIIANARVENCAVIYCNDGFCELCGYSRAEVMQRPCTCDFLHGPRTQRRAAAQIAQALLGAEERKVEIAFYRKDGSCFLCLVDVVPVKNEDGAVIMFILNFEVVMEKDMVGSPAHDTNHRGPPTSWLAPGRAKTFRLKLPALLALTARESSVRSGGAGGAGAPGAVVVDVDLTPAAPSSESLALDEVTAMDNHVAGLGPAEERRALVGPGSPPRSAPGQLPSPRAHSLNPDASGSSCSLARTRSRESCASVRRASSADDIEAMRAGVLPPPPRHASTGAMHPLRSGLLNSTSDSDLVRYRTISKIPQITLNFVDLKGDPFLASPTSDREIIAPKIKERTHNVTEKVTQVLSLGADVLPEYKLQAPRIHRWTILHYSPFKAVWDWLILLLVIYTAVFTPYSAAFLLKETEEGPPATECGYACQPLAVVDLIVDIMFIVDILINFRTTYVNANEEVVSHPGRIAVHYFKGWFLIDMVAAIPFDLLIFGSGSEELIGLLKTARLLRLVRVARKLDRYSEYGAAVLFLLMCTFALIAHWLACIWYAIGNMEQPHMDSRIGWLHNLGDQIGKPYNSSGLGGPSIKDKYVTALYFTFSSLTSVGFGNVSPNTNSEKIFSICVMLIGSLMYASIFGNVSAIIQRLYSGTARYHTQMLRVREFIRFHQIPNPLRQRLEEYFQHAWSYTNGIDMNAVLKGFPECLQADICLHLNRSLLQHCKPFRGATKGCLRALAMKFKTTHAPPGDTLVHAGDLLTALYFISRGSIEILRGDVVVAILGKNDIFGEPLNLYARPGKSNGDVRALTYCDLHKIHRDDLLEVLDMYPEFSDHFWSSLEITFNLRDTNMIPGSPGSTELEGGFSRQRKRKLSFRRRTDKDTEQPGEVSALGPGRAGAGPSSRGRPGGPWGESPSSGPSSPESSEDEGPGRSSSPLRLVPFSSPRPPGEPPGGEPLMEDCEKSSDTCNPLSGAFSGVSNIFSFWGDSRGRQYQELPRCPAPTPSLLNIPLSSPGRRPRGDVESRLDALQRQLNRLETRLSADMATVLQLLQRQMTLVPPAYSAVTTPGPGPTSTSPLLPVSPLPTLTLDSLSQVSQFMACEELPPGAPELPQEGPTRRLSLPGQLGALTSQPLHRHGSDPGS
As for `Cc1ccc(S(=O)(=O)CCC(=O)NCCN2C(=O)S/C(=C/c3ccc(F)cc3)C2=O)cc1`, the “hERG current change (%, negative = inhibition) at 1uM” value was found to be 0.236%. Under `COc1ccc(CN(C)CC2CCCN(CCc3ccc(F)cc3)C2)c(OC)c1OC` (stereo not shown) stands -15.7%. Then `N#Cc1cccc(NC(=O)CC2CCCCC2)c1`, with 2.05%; and `N/C(=N\c1nc(CSc2ccccn2)cc(=O)[nH]1)Nc1ccc(Cl)cc1Cl`, with 15.7%; and `CC(C)CN(C(=O)CN1CCN(c2ccc([N+](=O)[O-])cc2)CC1)c1c(N)n(CC(C)C)c(=O)[nH]c1=O`, with 3.37%.

With `CCOC(=O)c1cc2occc2n1CC(=O)NC1CCC(C)CC1` (stereo not shown), the “hERG current change (%, negative = inhibition) at 1uM” value was found to be 4.08%. Turning to `CCOC(=O)C[C@H]1c2ccc(C(F)(F)F)cc2S(=O)(=O)N1C(C)C`, the “hERG current change (%, negative = inhibition) at 1uM” value is recorded as 3.93%.

Turning to `Cc1[nH]c2ccccc2c1C(=O)CSc1cccc[n+]1[O-]`, the “hERG current change (%, negative = inhibition) at 1uM” value was found to be 16.7%.

As to `CN(C)C(=O)c1cc(C(=O)c2ccc(F)cc2F)c[nH]1`, the “hERG current change (%, negative = inhibition) at 1uM” value turned out to be 12.6%.

As for `Cn1cccc1C(=O)NCCc1ccccc1`, the “hERG current change (%, negative = inhibition) at 1uM” value is 11.9%.

`Cc1cc(C2(c3ccc(O)c(C)c3)C(=O)N(C)c3ccc(Br)cc32)ccc1O`: the “hERG current change (%, negative = inhibition) at 1uM” value is 8.38%. Then `COC(=O)c1sc2nc(CN3CCOCC3)nc(N3CCOCC3)c2c1C`, with 9.5%. Turning to `CCCC(c1nnnn1Cc1ccc(OC)cc1)N1CCC(C(N)=O)CC1.Cl` (stereo not shown), the “hERG current change (%, negative = inhibition) at 1uM” value is -2.15%. `COc1ccccc1-n1cnc2sc(C)c(C)c2c1=O`: the “hERG current change (%, negative = inhibition) at 1uM” value is reported as 15.2%. Under `CCOC(=O)C(NC(=O)CC)(Nc1ccccc1)C(F)(F)F` (stereo not shown) stands 14.6%; under `CCCCNCCCOc1cccc(Cl)c1`, 5.13%. On to `COc1cccc(NC(=O)CCCOc2cc(=O)n(C)c3ccccc23)c1`, for which the “hERG current change (%, negative = inhibition) at 1uM” value is reported as 12%. Then `CCOc1ccccc1OCC(=O)O`, with 12.1%; and `CCCOc1ccc(N2C(=O)CC(NCCNc3ccc([N+](=O)[O-])cn3)C2=O)cc1` (stereo not shown), with -57.8%; and `CCOCCCNS(=O)(=O)c1ccc(NC(=O)c2ccccc2)cc1`, with 10.5%.

For the compound `CCOC(=O)Cn1nc(-c2ccc(Cl)cc2)ccc1=O`, the “hERG current change (%, negative = inhibition) at 1uM” value stood at 1.57%. Under `Cc1noc(C)c1COc1ccc(C(=O)N2CCN(c3ccccn3)CC2)cc1` stands 1.21%; under `CC(=O)Nc1ccc(NC(=O)CN(C)S(=O)(=O)c2ccc3nc(C)sc3c2)cc1`, 3.13%; under `COC(=O)C1C/C(=N\NS(=O)(=O)c2ccc(C)cc2)c2ccccc2C1` (stereo not shown), 3.64%. Take `Cc1ccc(Sc2nnc(-c3ccccc3)cc2C#N)cc1`: the “hERG current change (%, negative = inhibition) at 1uM” value is given as 10.2%. As for `CC12CCC(c3n[nH]c(=S)nc31)C2(C)C` (stereo not shown), the “hERG current change (%, negative = inhibition) at 1uM” value worked out at 18.7%. Under `O=C(Nc1ccccc1C(=O)N1CCCCC1)c1ccco1` stands 16.7%; under `Cc1ccc2[nH]c(=O)c(CN(Cc3ccc4c(c3)OCO4)Cc3nnnn3C3CCCC3)cc2c1`, 9.47%. Turning to `CN1CCc2c(sc3nc(SCC(=O)N4CCOCC4)nc(N)c23)C1`, the “hERG current change (%, negative = inhibition) at 1uM” value is 12.7%.

`CCOC(=O)CCCSc1nc2sc3c(c2c(=O)[nH]1)CCC3`: the “hERG current change (%, negative = inhibition) at 1uM” value amounted to 14.8%. Under `Cc1c(Br)c([N+](=O)[O-])nn1CC(=O)Nc1ccc2nc3n(c(=O)c2c1)CCCC3` stands 20.9%. Under `CCCOc1ccc(N2C(=O)CC(SC(=N)N3N=C(c4ccccc4)CC3c3ccccc3)C2=O)cc1` (stereo not shown) stands 6.52%; under `O=C(COC(=O)c1ccccc1O)Nc1cccnc1Cl`, 15.8%; under `O=C(O)C1C2C=CC(C2)C1C(=O)N1CCOCC1` (stereo not shown), 1.69%. Then `Cn1c(Cn2c(=O)sc3ccccc32)nnc1SCC(=O)N1CCN(c2ccccc2)CC1`, with -20.7%; and `O=C1N(c2ccccc2C(F)(F)F)OC1(Cc1ccccc1)c1ccccc1` (stereo not shown), with 11.4%; and `Cc1ccccc1CN1CCN(C2CCC2)CC1CCO` (stereo not shown), with 13.9%. Consider `COc1cc(NC(=O)c2ccccc2)c(OC)cc1NC(=O)CN1CCN(c2ccccn2)CC1`, for which the “hERG current change (%, negative = inhibition) at 1uM” value was 3.33%. Consider `COc1cc(CNn2cn[nH]c2=S)cc(Br)c1OCc1ccccc1F`, for which the “hERG current change (%, negative = inhibition) at 1uM” value is listed as 9.54%. Then `CN1C(=S)SC(/[N+]([O-])=C\c2ccco2)C1(C)C` (stereo not shown), with 10.4%; and `Cl.c1ccc(COc2ccc(CNCc3cccs3)cc2)cc1`, with 11.7%; and `CCCC(=O)Nc1c2c(nn1-c1ccccc1)CSC2`, with 10.3%. Then `Cc1ccc(NC(=O)C(c2ccccc2)N(C)C)cc1Cl` (stereo not shown), with 8.04%; and `O=C(c1ccco1)N1CCCC(c2nc3c(nnn3Cc3c(Cl)cccc3Cl)c(=O)[nH]2)C1` (stereo not shown), with 1.38%.

In the case of `Cc1ccc(SCCNC(=O)/C=C/c2cccc([N+](=O)[O-])c2)cc1`, the “hERG current change (%, negative = inhibition) at 1uM” value turned out to be 1.8%. Under `Oc1ccc(/C=N/N2CCOCC2)c(O)c1O` stands 31.7%; under `C/C(=N\NC(=O)CSc1nc2ccccc2o1)c1ccc(O)cc1`, 8.71%. With `O=C(CC1N=C2c3ccccc3N=C(SCc3ccccc3Cl)N2C1=O)NCc1ccco1` (stereo not shown), the “hERG current change (%, negative = inhibition) at 1uM” value is -5.05%.

Turning to `COc1cc(Br)c(CCNC(=O)c2ccco2)cc1OC`, the “hERG current change (%, negative = inhibition) at 1uM” value worked out at 11.8%.

For the compound `CCc1c(C)nc(SCC(=O)N2CCN(c3ccccc3)CC2)[nH]c1=O`, the “hERG current change (%, negative = inhibition) at 1uM” value stood at 12.1%. Then `Cn1nnc2cc(C(=O)NCc3ccc4c(c3)OCO4)ccc21`, with 14.9%; and `Cc1ccc(-c2nc(N)n(C(=O)Cc3ccccc3)n2)cc1`, with 18.5%; and `COc1cccc(C2C(C#N)=C(N)N(c3ncn[nH]3)C3=C2C(=O)CCC3)c1` (stereo not shown), with 12.7%. With `C=CCNC(=S)N(C1CCCCC1)C1CCCCC1`, the “hERG current change (%, negative = inhibition) at 1uM” value stood at 7.82%. Regarding `NS(=O)(=O)c1ccc(Cl)cc1[N+](=O)[O-]`, the “hERG current change (%, negative = inhibition) at 1uM” value is recorded as 16%. For `CC(C)N1C(=O)S/C(=C/c2ccccc2OCc2ccc(C(=O)O)cc2)C1=O`, the “hERG current change (%, negative = inhibition) at 1uM” value is on record as -3.84%. Turning to `CC(=N)C1=C(O)CC(C)(C)CC1=O`, the “hERG current change (%, negative = inhibition) at 1uM” value worked out at 13.9%. As for `Fc1cccc(COc2ccccc2C(=S)N2CCCC2)c1`, the “hERG current change (%, negative = inhibition) at 1uM” value came to 9.03%.

Values taken from article PMC4336329 (PLoS ONE, 2015).
